The list shows a part of the results.
Tests used:
HSkMC = human skeletal muscle cells; assay: cytotoxicity call (relative viability < 0.9); conditions: 10 µM
HepG2 = assay: cytotoxicity call (relative viability < 0.9); conditions: 10 µM
S. aureus RN4220 = assay: growth inhibition call (relative growth <= 0.2); conditions: 50 µM

Row | Structure (SMILES) | cytotoxicity call (HSkMC) | cytotoxicity call (HepG2) | growth inhibition call (S. aureus RN4220)
1 | C[C@@H]1CCCCO[C@H](CN(C)C(=O)Nc2ccc(C(F)(F)F)cc2)[C@H](C)CN([C@@H](C)CO)C(=O)c2cc(NS(=O)(=O)c3ccccc3)ccc2O1 | inactive | active | inactive
2 | CC(C)NC(=O)Nc1ccc2c(c1)CC(=O)N([C@H](C)CO)C[C@@H](C)[C@@H](CN(C)S(=O)(=O)c1ccc(F)cc1)O2 | inactive | inactive | inactive
3 | COc1ccc(S(=O)(=O)N(C)C[C@H]2OCCCC[C@@H](C)Oc3ccc(NC(=O)Nc4ccccc4)cc3C(=O)N([C@@H](C)CO)C[C@@H]2C)cc1 | inactive | inactive | inactive
4 | CCCc1nc2c(C)cc(-c3nc4ccccc4n3C)cc2n1Cc1ccc(-c2ccccc2C(=O)O)cc1 | inactive | inactive | inactive
5 | C[C@H]1CN([C@@H](C)CO)C(=O)c2cc(C#CC3(O)CCCC3)cnc2O[C@H]1CN(C)S(=O)(=O)c1ccc(F)cc1 | inactive | inactive | inactive
6 | C[C@@H]1CN([C@@H](C)CO)C(=O)Cc2cc(NC(=O)Cn3cnnn3)ccc2O[C@@H]1CN(C)Cc1ccc(C(=O)O)cc1 | inactive | inactive | inactive
7 | COc1ccc(CN(C)C[C@H]2Oc3ccc(NC(=O)Nc4cccc5ccccc45)cc3C(=O)N([C@@H](C)CO)C[C@@H]2C)cc1 | inactive | inactive | inactive
8 | COc1ccc2c3c(n(c2c1)C)[C@H](CO)N(C[C@]13CCN(CC1)C(=O)c1ccncc1)C(=O)c1cnccn1 | inactive | inactive | inactive
9 | Cc1ccc(-c2ccc3c(c2)O[C@H](CN(C)C(=O)NC(C)C)[C@H](C)CN([C@H](C)CO)S3(=O)=O)cc1 | inactive | inactive | inactive
10 | C[C@H](CO)N1C[C@H](C)[C@H](CN(C)C(=O)Nc2ccc(F)cc2)Oc2ccc(NS(=O)(=O)c3cn(C)cn3)cc2C1=O | inactive | inactive | inactive
11 | COc1ccc(S(=O)(=O)N2C[C@H](O)COC[C@@H]3O[C@H](CC(=O)NCCCN4CCOCC4)CC[C@H]32)cc1 | inactive | inactive | inactive
12 | CN1CCN(C(=O)C[C@@H]2CC[C@H](NC(=O)Cc3ccccn3)[C@H](CO)O2)CC1 | inactive | inactive | inactive
13 | COCC#Cc1ccc2c(c1)O[C@H](CN(C)S(=O)(=O)c1ccc(OC)cc1)[C@H](C)CN([C@@H](C)CO)S2(=O)=O | inactive | inactive | inactive
14 | Cc1ccc(-c2ccc3c(c2)O[C@H](CN(C)C(=O)CN(C)C)[C@H](C)CN([C@H](C)CO)S3(=O)=O)cc1 | inactive | inactive | inactive
15 | COc1ccc(S(=O)(=O)Nc2ccc3c(c2)C(=O)N([C@H](C)CO)C[C@H](C)[C@H](CN(C)C(=O)Nc2ccc4c(c2)OCO4)OCCCC[C@@H](C)O3)cc1 | inactive | inactive | inactive
16 | C[C@H](CO)N1C[C@H](C)[C@H](CN(C)Cc2ccc(-c3ccccc3)cc2)Oc2ccc(NC(=O)Cc3cn(C)c4ccccc34)cc2C1=O | active | active | inactive
17 | Cc1ccc(S(=O)(=O)N(C)C[C@H]2OCCCC[C@@H](C)Oc3ccc(NC(=O)CCC(F)(F)F)cc3C(=O)N([C@@H](C)CO)C[C@H]2C)cc1 | inactive | inactive | inactive
18 | C[C@H](CO)N1C[C@H](C)[C@@H](CN(C)C(=O)CCN2CCCCC2)Oc2ncc(C#Cc3ccccn3)cc2C1=O | inactive | inactive | inactive
19 | COc1ccc(NC(=O)N(C)C[C@H]2OCc3ccccc3-c3c(n(C)c4ccccc34)C(=O)N([C@@H](C)CO)C[C@@H]2C)cc1 | inactive | inactive | inactive
20 | Cc1noc(C)c1S(=O)(=O)Nc1ccc2c(c1)CC(=O)N([C@@H](C)CO)C[C@@H](C)[C@@H](CN(C)C(=O)Nc1ccccc1)O2 | inactive | inactive | inactive
21 | Cc1ccc(C)c(S(N)(=O)=O)c1 | inactive | inactive | inactive
22 | CC(CCC(=O)[O-])C1CCC2C3C(=O)CC4CC(=O)CCC4(C)C3CC(=O)C12C.[Na+] (stereo not given) | inactive | inactive | inactive
23 | N=C(N)NC(=O)c1nc(Cl)c(N)nc1N | inactive | inactive | inactive
24 | COc1cccc(C#Cc2ccc3c(c2)O[C@@H](CN(C)C(C)=O)[C@H](C)CN([C@H](C)CO)S3(=O)=O)c1 | inactive | inactive | inactive
25 | NC(Cc1cc(I)c(O)c(I)c1)C(=O)O.O.O (stereo not given) | inactive | inactive | inactive
